# Over roughly 33,000 sequences, “E-score (-0.5 to 0.5)” has its median near -0.032; the highest 2% begin near 0.36. This is one part of the list.
# Biological target: T1, Sko1 (UniProt Q02100)
# T1 sequence: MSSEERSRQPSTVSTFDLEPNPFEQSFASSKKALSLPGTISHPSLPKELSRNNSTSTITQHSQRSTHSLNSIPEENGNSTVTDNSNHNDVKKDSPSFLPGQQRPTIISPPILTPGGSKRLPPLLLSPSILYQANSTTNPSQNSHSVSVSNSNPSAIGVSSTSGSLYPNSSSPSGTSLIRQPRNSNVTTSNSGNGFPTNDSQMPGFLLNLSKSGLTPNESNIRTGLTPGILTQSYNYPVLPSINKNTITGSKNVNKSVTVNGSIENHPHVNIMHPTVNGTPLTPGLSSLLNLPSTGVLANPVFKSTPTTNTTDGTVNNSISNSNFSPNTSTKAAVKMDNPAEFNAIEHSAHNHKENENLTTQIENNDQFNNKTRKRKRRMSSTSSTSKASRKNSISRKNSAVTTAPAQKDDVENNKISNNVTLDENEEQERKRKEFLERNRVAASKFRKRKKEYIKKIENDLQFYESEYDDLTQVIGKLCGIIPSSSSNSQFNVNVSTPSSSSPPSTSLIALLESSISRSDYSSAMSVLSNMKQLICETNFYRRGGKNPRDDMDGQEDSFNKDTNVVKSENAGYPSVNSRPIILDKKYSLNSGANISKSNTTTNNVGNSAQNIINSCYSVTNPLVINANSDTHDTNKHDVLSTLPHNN
# Experiment: PBM E-score (8-mer binding enrichment) (E-score (-0.5 to 0.5)); higher = stronger / more preferred TF binding; most listed sequences are background and not binding sites
# Details: protein concentration: 200 nM; construct: GST-full length
# Summary of the method: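 Each ungapped eight-base word and its reverse complement, pooled, received an E-score from the Universal PBM Analysis Suite. Underlying scans, normalised with masliner, recorded fluorescent anti-GST bound to GST-tagged yeast transcription factors. These were applied at about 100-200 nM to universal all-10-mer Agilent arrays double-stranded by primer extension.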
row,Sequence,PBM E-score
1,AACTCTGC,-0.209
2,GGAAACTA,-0.111
3,ATTTCGCG,0.125
4,ATTTCAAC,0.0828
5,CGAGGCAG,-0.236
6,TCATGCGA,0.0294
7,ATTCGTTC,0.158
8,GAAAACTC,-0.0676
9,ATCTGAGC,0.0943
10,CTGAGATC,-0.176
11,AGAAGGAC,-0.185
12,CAGTCTTA,-0.0285
13,GGCCCGCC,-0.167
14,GTTCATTA,0.206
15,GTTTAGAA,0.0523
16,GAGACCCA,-0.195
17,ACCAGGTG,-0.13
18,AACTAAGC,0.123
19,GAAAATAA,0.191
20,CATTGCTC,-0.14
21,CCACAGGG,-0.37
22,CTGGCGAA,-0.192

row,Sequence,PBM E-score
1,AAGTCGAG,-0.118
2,AGAAGGTA,-0.0444
3,AGTTGAGC,-0.138
4,CGTGGTCC,0.0939
5,CCTATGAC,0.308
6,ATCAGTGA,0.048
7,GGAGTTAA,-0.139
8,AAAATGCT,0.0588
9,CGATGTCC,-0.149
10,CGTCCTAC,-0.165
11,TCCTTACA,-0.0475
12,AGACCAGG,-0.157
13,ATAGTAAT,0.254
14,AGTTACAA,0.0823
15,ATCTGGAA,0.0487
16,CCGTACAC,-0.0557
17,CAAGGGGG,-0.388
18,AAGTGTGA,0.12
19,GCCACGCA,0.0845
20,GACCACGA,-0.0985
21,ACGAAGCC,-0.11
22,AATGCTGC,0.0182

row,Sequence,PBM E-score
1,CTGTACCA,-0.117
2,CACGCGTA,0.311
3,ACACTAAG,0.0281
4,TCTATGCA,0.0418
5,GGAAAAAC,0.0925
6,GTGCTAGA,-0.00191
7,GCAGTGAC,0.125
8,GGCATTCA,-0.193
9,AACTAGAT,0.0857
10,GACGGCGC,-0.106
11,AGCGCAAA,0.034
12,GAACATCC,-0.0417
13,CCCATACC,-0.135
14,ACGCTCCT,0.0118
15,CTGTCTCC,-0.192
16,TACAGGTA,-0.0036
17,AAATCACT,0.0538
18,AGCGCATC,0.0133
19,TGCTGAAA,0.043
20,ATGCCATG,0.118
21,CATCGCGG,0.061
22,AGGAATAT,0.0863

row,Sequence,PBM E-score
1,GGCGCCCC,-0.262
2,CGAGACGA,-0.179
3,ATTAGGCA,0.172
4,CCTATCAC,-0.186
5,GCTTGCAC,-0.145
6,AAACCGGC,-0.199
7,GGGAGAAA,-0.134
8,GTGTATTA,0.272
9,CAGGTTGC,0.0442
10,GGCCACCC,-0.263
11,CCGGCTAG,-0.322
12,AGTGCACT,-0.139
13,AGGCTGCA,-0.00537
14,ACTGAACT,-0.0554
15,GACCTATA,0.221
16,GGCCGACA,-0.183
17,GGACAGCC,-0.339
18,CGCAGCCC,-0.167
19,AACCCTCA,-0.0917
20,GCGCTAGC,-0.2

# From the supplement of paper PMC3334620
